Source: article PMC9911399, “Two distinct binding modes provide the RNA-binding protein RbFox with extraordinary sequence specificity”
Changes are numbered by the printed parent chain; changes in the protein carry UniProt numbers. This is one part of the list.

T1: RBFOX1 RRM (Homo sapiens, UniProt Q9NWB1 109-208)
T1 sequence: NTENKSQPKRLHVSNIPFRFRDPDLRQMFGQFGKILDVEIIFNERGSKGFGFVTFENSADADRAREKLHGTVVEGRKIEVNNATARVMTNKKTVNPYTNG

B1: AGACAAA (DNA:RNA)
RNA: GGGAGACCGGAAUUCAGAUUGUCCAGACAAAUUAAAUCCCGUCGUAGCCACCA
DNA 1: CAATCTGAATTCCGGTCTCCC
DNA 2: TGGTGGCTACGACGGGATT
B2: AUGGUUC (DNA:RNA)
RNA: B1 RNA with G26U, A27G, C28G, A29U, A30U, A31C
DNA 1: CAATCTGAATTCCGGTCTCCC
DNA 2: TGGTGGCTACGACGGGATT
B3: UCCAUCG (DNA:RNA)
RNA: GGGAGACCGGAAUUCAGAUUGUCCUCCAUCGUUAAAUCCCGUCGUAGCCACCA
DNA 1: CAATCTGAATTCCGGTCTCCC
DNA 2: TGGTGGCTACGACGGGATT
B4: AGUUCCG (DNA:RNA)
RNA: B1 RNA with A27U, C28U, A29C, A30C, A31G
DNA 1: CAATCTGAATTCCGGTCTCCC
DNA 2: TGGTGGCTACGACGGGATT
B5: UCAUAUC (DNA:RNA)
RNA: B1 RNA with A25U, G26C, C28U, A30U, A31C
DNA 1: CAATCTGAATTCCGGTCTCCC
DNA 2: TGGTGGCTACGACGGGATT
B6: GUGGAUA (DNA:RNA)
RNA: B1 RNA with A25G, G26U, A27G, C28G, A30U
DNA 1: CAATCTGAATTCCGGTCTCCC
DNA 2: TGGTGGCTACGACGGGATT
B7: GUGUAUA (DNA:RNA)
RNA: B1 RNA with A25G, G26U, A27G, C28U, A30U
DNA 1: CAATCTGAATTCCGGTCTCCC
DNA 2: TGGTGGCTACGACGGGATT
B8: CUGAGUC (DNA:RNA)
RNA: B3 RNA with U25C, C26U, C27G, U29G, C30U, G31C
DNA 1: CAATCTGAATTCCGGTCTCCC
DNA 2: TGGTGGCTACGACGGGATT
B9: CCCAGUG (DNA:RNA)
RNA: B3 RNA with U25C, U29G, C30U
DNA 1: CAATCTGAATTCCGGTCTCCC
DNA 2: TGGTGGCTACGACGGGATT
B10: GUCAUAU (DNA:RNA)
RNA: B3 RNA with U25G, C26U, C30A, G31U
DNA 1: CAATCTGAATTCCGGTCTCCC
DNA 2: TGGTGGCTACGACGGGATT
B11: AAAAAUA (DNA:RNA)
RNA: B1 RNA with G26A, C28A, A30U
DNA 1: CAATCTGAATTCCGGTCTCCC
DNA 2: TGGTGGCTACGACGGGATT
B12: CGAAGAG (DNA:RNA)
RNA: B1 RNA with A25C, C28A, A29G, A31G
DNA 1: CAATCTGAATTCCGGTCTCCC
DNA 2: TGGTGGCTACGACGGGATT
B13: UUUAGUC (DNA:RNA)
RNA: B3 RNA with C26U, C27U, U29G, C30U, G31C
DNA 1: CAATCTGAATTCCGGTCTCCC
DNA 2: TGGTGGCTACGACGGGATT
B14: AAGCGAC (DNA:RNA)
RNA: B1 RNA with G26A, A27G, A29G, A31C
DNA 1: CAATCTGAATTCCGGTCTCCC
DNA 2: TGGTGGCTACGACGGGATT
B15: CGCCGAC (DNA:RNA)
RNA: B1 RNA with A25C, A27C, A29G, A31C
DNA 1: CAATCTGAATTCCGGTCTCCC
DNA 2: TGGTGGCTACGACGGGATT
B16: GCAAAAC (DNA:RNA)
RNA: B1 RNA with A25G, G26C, C28A, A31C
DNA 1: CAATCTGAATTCCGGTCTCCC
DNA 2: TGGTGGCTACGACGGGATT
B17: GAUACCU (DNA:RNA)
RNA: B3 RNA with U25G, C26A, C27U, U29C, G31U
DNA 1: CAATCTGAATTCCGGTCTCCC
DNA 2: TGGTGGCTACGACGGGATT
B18: GCGGCCC (DNA:RNA)
RNA: B3 RNA with U25G, C27G, A28G, U29C, G31C
DNA 1: CAATCTGAATTCCGGTCTCCC
DNA 2: TGGTGGCTACGACGGGATT
B19: AUACGGU (DNA:RNA)
RNA: B1 RNA with G26U, A29G, A30G, A31U
DNA 1: CAATCTGAATTCCGGTCTCCC
DNA 2: TGGTGGCTACGACGGGATT
B20: CCUAAAA (DNA:RNA)
RNA: B1 RNA with A25C, G26C, A27U, C28A
DNA 1: CAATCTGAATTCCGGTCTCCC
DNA 2: TGGTGGCTACGACGGGATT
B21: CUGCAUG (DNA:RNA)
RNA: B1 RNA with A25C, G26U, A27G, A30U, A31G
DNA 1: CAATCTGAATTCCGGTCTCCC
DNA 2: TGGTGGCTACGACGGGATT
B22: CCCCGCG (DNA:RNA)
RNA: B3 RNA with U25C, A28C, U29G
DNA 1: CAATCTGAATTCCGGTCTCCC
DNA 2: TGGTGGCTACGACGGGATT
B23: GCUGUAC (DNA:RNA)
RNA: B3 RNA with U25G, C27U, A28G, C30A, G31C
DNA 1: CAATCTGAATTCCGGTCTCCC
DNA 2: TGGTGGCTACGACGGGATT
B24: UCUGUCG (DNA:RNA)
RNA: B3 RNA with C27U, A28G
DNA 1: CAATCTGAATTCCGGTCTCCC
DNA 2: TGGTGGCTACGACGGGATT
B25: CACGCCG (DNA:RNA)
RNA: B3 RNA with U25C, C26A, A28G, U29C
DNA 1: CAATCTGAATTCCGGTCTCCC
DNA 2: TGGTGGCTACGACGGGATT
B26: CUGUGGU (DNA:RNA)
RNA: GGGAGACCGGAAUUCAGAUUGUCCCUGUGGUUUAAAUCCCGUCGUAGCCACCA
DNA 1: CAATCTGAATTCCGGTCTCCC
DNA 2: TGGTGGCTACGACGGGATT
B27: UGCUCCG (DNA:RNA)
RNA: B3 RNA with C26G, A28U, U29C
DNA 1: CAATCTGAATTCCGGTCTCCC
DNA 2: TGGTGGCTACGACGGGATT
B28: AAGUGAA (DNA:RNA)
RNA: B1 RNA with G26A, A27G, C28U, A29G
DNA 1: CAATCTGAATTCCGGTCTCCC
DNA 2: TGGTGGCTACGACGGGATT
B29: GAGAGCC (DNA:RNA)
RNA: B26 RNA with C25G, U26A, U28A, G30C, U31C
DNA 1: CAATCTGAATTCCGGTCTCCC
DNA 2: TGGTGGCTACGACGGGATT
B30: UAGCAUU (DNA:RNA)
RNA: B1 RNA with A25U, G26A, A27G, A30U, A31U
DNA 1: CAATCTGAATTCCGGTCTCCC
DNA 2: TGGTGGCTACGACGGGATT
B31: CCCGAUA (DNA:RNA)
RNA: B1 RNA with A25C, G26C, A27C, C28G, A30U
DNA 1: CAATCTGAATTCCGGTCTCCC
DNA 2: TGGTGGCTACGACGGGATT

Target: T1, RBFOX1 RRM
Experiment: EMSA; HiTS-Eq, 1 nM pool, 10 min; buffer printed only for the single-RNA assays: 10 mM Tris pH 7.5, 150 mM NaCl, 3.4 mM EDTA, 0.001% NP-40, 30 C
Details: tags: His6 N-terminal (pET28a); label: 5' 32P
Method in brief: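 These values rest on relative association constants, computed from read-count changes of each RNA species versus the control reaction and normalised to the cognate motif. Reads came from free RNA recovered by 8% native PAGE after purified RbFox RRM (wild type or mutant) at increasing concentrations was equilibrated for 10 min in 50 µL with 1 nM of a 5′-radiolabelled pool with 7 randomized nucleotides and DNA-annealed flanks.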

| Binder | binding signal |
| --- | --- |
| B1 | 0.000651 KA relative to UGCAUGU |
| B2 | 0.015 KA relative to UGCAUGU |
| B3 | 0.00468 KA relative to UGCAUGU |
| B4 | 0.00968 KA relative to UGCAUGU |
| B5 | 0.00151 KA relative to UGCAUGU |
| B6 | 0.0166 KA relative to UGCAUGU |
| B7 | 0.00691 KA relative to UGCAUGU |
| B8 | 0.0162 KA relative to UGCAUGU |
| B9 | 0.0079 KA relative to UGCAUGU |
| B10 | 0.00217 KA relative to UGCAUGU |
| B11 | 0.000283 KA relative to UGCAUGU |
| B12 | 0.0149 KA relative to UGCAUGU |
| B13 | 0.0158 KA relative to UGCAUGU |
| B14 | 0.00386 KA relative to UGCAUGU |
| B15 | 0.0109 KA relative to UGCAUGU |
| B16 | 0.00147 KA relative to UGCAUGU |

| Binder | binding signal |
| --- | --- |
| B17 | 0.00312 KA relative to UGCAUGU |
| B18 | 0.0172 KA relative to UGCAUGU |
| B19 | 0.00622 KA relative to UGCAUGU |
| B20 | 0.000973 KA relative to UGCAUGU |
| B21 | 1.04 KA relative to UGCAUGU |
| B22 | 0.00596 KA relative to UGCAUGU |
| B23 | 0.018 KA relative to UGCAUGU |
| B24 | 0.0246 KA relative to UGCAUGU |
| B25 | 0.00195 KA relative to UGCAUGU |
| B26 | 0.0208 KA relative to UGCAUGU |
| B27 | 0.0132 KA relative to UGCAUGU |
| B28 | 0.00229 KA relative to UGCAUGU |
| B29 | 0.0145 KA relative to UGCAUGU |
| B30 | 0.0115 KA relative to UGCAUGU |
| B31 | 0.00513 KA relative to UGCAUGU |
